# Data published in ChEMBL document CHEMBL4888484, “Replenishing the malaria drug discovery pipeline: Screening and hit evaluation of the MMV Hit Generation Library 1 (HGL1) against asexual blood stage Plasmodium falciparum ,using a nano luciferase reporter read-out” (2022).
# In all, about 150,000 compounds went through this assay and about 540 (0.36%) showed an effect of 50% or more. Some of the results follow.
# Test system: Plasmodium falciparum
# Experiment: Primary screen in NF54 nanoGlo assay, in single point, at 2uM, 72h; a lower Z score goes with more inhibition
# Type: functional, Erythrocyte
# Settings: timepoint 72 hour
Structure (SMILES),% Inhibition [%],Z score
O=C(CCCS(=O)(=O)N1CCCC1)N1CCCCCO1,7,-1.2
CS(=O)(=O)N1CCN(C(=O)N2C3CCC2CC(Oc2ccncc2)C3)C1=O (stereo not given),-15,1.7
Cc1sc(C(=O)N2CCCC2)c2ncnc(NCc3cccs3)c12,-15,2.6
CCCN(C(=O)Nc1cc(Cl)ccc1OC)c1nc(-c2ccc(C3CCCCC3)cc2)cs1,-14,2.04
COc1ccccc1CNC(=O)C1CCCCC1C(=O)N1CCCC1 (stereo not given),-10,1.25
Cc1[nH]ccc1C(=O)N1CCC[C@@]2(CCS(=O)(=O)C2)C1,-6,1.03
Cc1c(C(=O)N2C[C@H]3CC[C@@H](C2)N(CC2CC2)C3)cnn1C,-11,1.95
Cc1cc(CCNC(=O)[C@H]2CC[C@H](Nc3ncccn3)CC2)nn1C,-5,0.72
O=C(CC[C@H]1CCCOC1)Nc1cccc(Cl)c1O,2,-0.31
CC(=O)NCCc1noc([C@@H](c2ccccc2)C2CC2)n1,-2,0.31
Cc1nsc(OCc2ccccc2F)n1,-1,0.11
CCOC1(C)CN(C(=O)c2ncccc2OC(C)C)C1,-12,1.87
C[C@@H](CN1CCCCC1)c1nc(-c2cccc(F)c2)n[nH]1,-5,0.64
CCc1nc(-c2ccc(N3CCN(C(=O)c4ccc(C)c(C)c4)CC3)cc2)no1,3,-0.32
CN1CCN(S(=O)(=O)N2CCCCCC2)C[C@]12CCNC(=O)CC2,-6,0.76
Cc1csc(C(C)Cn2nnnc2N2C[C@@H](C)O[C@@H](C)C2)n1 (stereo not given in full),-11,1.37
Cc1nc2c(c(N3CCCC3)n1)CCN(C(=O)N(C(C)C)C(C)C)C2,-8,0.77
c1ccc(Cn2ccnc2CN2CCOCC2)cc1,-6,0.8
O=S(=O)(CC12CCC(CC1)CC2)N[C@H]1CC12CCOCC2,-6,1.01
COc1cc(=O)c(C(=O)N2CCN(S(N)(=O)=O)CC2)nn1-c1ccc(F)cc1,5,-0.83
COCCOCC(=O)N1CCC2(CC1)C[C@H](c1ccccc1)C(=O)N2C,-6,0.73
COCCC1(C(=O)NCc2noc(-c3ccsc3)n2)CCC1,-7,0.92

Structure (SMILES),% Inhibition [%],Z score
CC(NC(=O)C(C)n1sc2ccccc2c1=O)c1ccc2c(c1)OCCO2 (stereo not given),-11,1.91
COc1cccc([C@@H](O)Cn2cnc3c(ncn3C)c2=O)c1,3,-0.44
Cc1ccccc1CC(=O)N1CCC[C@H](Cn2cc(C(=O)N3CCCC3)nn2)C1,-7,1.33
Cc1nc(CN(C)C(=O)C(=O)Nc2ccc(F)cc2Cl)no1,-29,3.4
CCCCc1ccc(NC(=O)N2CC[C@]3(C2)c2nc[nH]c2CCN3C)cc1,-17,2.86
CCCS(=O)(=O)N1CCC(F)(c2nc(-c3ccncc3)no2)CC1,-11,1.44
CCn1cnc(NC(=O)NCCc2nnn[nH]2)n1,0,-0.04
CC(C)N(Cc1nccn1C)C(=O)[C@H]1CCC(=O)N(CCc2ccccc2)C1,-4,0.37
CCc1cc(NC(=O)CCC(F)(F)F)nc(C)n1,-2,0.32
CN(C(=O)c1cccn(C)c1=O)C1CCCC1,-2,0.3
O=C(NC1CCCC1Oc1ccccc1)c1ccncc1 (stereo not given),-13,1.9
CC[C@H]1Cc2ccccc2CN1C(=O)NCc1nc(C)cs1,-2,0.37
O=C(Cn1nc2c(N3CCCC3)nc3ccccc3n2c1=O)Nc1ccc(F)cc1,-9,1.16
COc1ccc(C2CC(c3ccccc3)n3ncnc3N2C(=O)CC(C)C)cc1 (stereo not given),5,-0.78
Cc1ncc(-c2nc([C@H]3CCOC3)no2)c(C)n1,-16,1.71
CNC(=O)C(=O)Nc1ccccc1C(F)(F)F,34,-0.94
Cc1ccc(NC(=O)[C@@H](N)COC(C)C)cn1,-19,3.33
CC(=O)NC[C@H]1CCCN(c2nc3nonc3nc2N2CCCC2)C1,-18,2.04
O=C(O)CCc1ccc(-c2ccc(F)cc2)n1NC(=O)c1ccccc1Br,2,-0.29
Cc1c[nH]c(CN(C)C(=O)c2cnn(C)c2C)n1,-4,0.78
Cc1nnc(OCc2ccccc2C)s1,-1,0.2
O=C(CC1=CCCCC1)N1CC[C@@]2(CCCN(CC3CCC3)C2=O)C1,-12,1.77

Structure (SMILES),% Inhibition [%],Z score
COCc1nc(CN2CCCC2)n(-c2ccncc2)n1,-10,2.08
Cc1ncc(C(=O)OCC(=O)N(C2CCCC2)[C@H]2CCS(=O)(=O)C2)s1,-14,1.86
Cc1cccc(OCC(=O)N2C3CCC2CC(F)C3)c1 (stereo not given),-1,0.14
O=C(CCn1cccn1)N1CCC2(CC1)CN(c1ccncn1)C[C@@H]2CO,-15,2.14
CC(C)c1ccc(NC(=O)C2CCN2C(=O)C(Cc2ccccc2)NC(=O)C(F)(F)F)cc1 (stereo not given),12,-1.39
COC(=O)CNC(=O)COc1ccc(Cl)cc1,-11,2.12
CN1CCCN(C(=O)Cc2noc3ccccc23)c2nc3ccccc3nc21,-8,1.05
CC(C)(C)NC(=O)Cc1ccc(O)cc1,1,-0.15
CCCN1C[C@@H](NC(=O)c2nc3ccccc3[nH]c2=O)CC1=O,-2,0.27
COc1ccc(CN2CCN(C(=O)NC[C@H]3COc4ccccc4O3)CC2)c(OC)c1OC,-9,0.98
O=C(Nc1ccc(CN2CCOCC2)cc1)c1[nH]nc2c1CCCC2,-18,1.83
O=C(Cc1cccnc1)N1CC(Nc2cnccn2)C1,-18,2.06
CC[C@@](C)(C#N)NC(=O)Cc1cccc(F)c1,-5,1.1
O=C(NCc1ccc(N2CC=CC2)cc1)Nc1ccncc1,-1,0.09
O=C(Nc1cccc(Oc2c(F)c(F)c(Oc3cccc(NC(=O)c4ccccc4Cl)c3)c(F)c2F)c1)c1ccccc1Cl,0,0.06
COc1ccc(C(=O)Nc2ccc3nc(N4CCC(C)CC4)cc(C)c3c2)cc1OC,7,-1.1
CC(C)c1nsc(NCC2(O)CN(C(=O)OC(C)(C)C)C2)n1,-10,0.95
O=C(NCC1(CO)CCOCC1)N(c1ccccc1)c1ccccc1,-1,0.08
C[C@@H]1CN(C[C@@H]2CN(Cc3cccc(F)c3F)C[C@@H]2CO)C[C@H](C)O1,7,-1.17
CCCC(=O)N(Cc1c(C)nn(-c2cccc(F)c2)c1N1CCN(C(C)C)CC1)C(C)C,2,-0.27
O=C1N[C@H]2C[C@@H](C(=O)NC[C@H]3O[C@H](CCOc4cc(-c5ccncc5)ccc41)CC[C@@H]3O)N(C1CCC1)C2,34,-3.85
C[C@H](NC1CC(=O)NC1=O)c1ccccc1 (stereo not given in full),-14,1.87

Structure (SMILES),% Inhibition [%],Z score
Cc1ccc(S(=O)(=O)CCC(=O)NC2CCCC2)c(C)c1,-5,0.92
Cc1ccc(C(=O)N(CC(C)C)CC2CN(Cc3cccc(C)c3)CC2c2ccccc2)cc1 (stereo not given),-11,2.18
Cc1ccc(S(=O)(=O)Nc2nc3n(n2)[C@H](c2ccccc2)CC(O)=N3)cc1,-4,0.39
CCc1nc(-c2[nH]nc(CC)c2C)n(-c2ccc(C(=O)O)cc2)n1,4,-0.49
Cc1nn(C(C)C)cc1CN1CCOc2ccccc2[C@@H]1C(=O)O,-2,0.26
CC(C)[C@H](NC(=O)CCc1nnc(O)[nH]c1=O)c1nc2ccccc2n1C(C)C,-3,0.39
CCn1cc(CNc2nc(-c3cccnc3)nc3c2CCNCC3)cn1,-7,1.41
CC(c1c(O)nc2ccccc2c1O)C1(C)CCC(O)C(C)(C)O1 (stereo not given),-35,4.06
O=C1c2ccccc2N[C@H](c2cccc(Br)c2O)N1Cc1cccnc1,-8,1.02
COc1cccc(-c2nn(C)c3sc(C(=O)N4CCN(c5ccccc5)CC4)cc23)c1,-2,0.32
Cc1cc(C)c(S(=O)(=O)NCCC(=O)N(C)C)cc1N(C)S(C)(=O)=O,2,-0.3
O=C(CCC1CCCO1)NC1CCCCNC1=O (stereo not given),-10,1.58
CNc1nc(CN2CCn3nc(CCC(=O)NC4CC4)cc3C2)cs1,0,-0.08
CC(C)Oc1ccc(C(=O)NC[C@H]2CCS(=O)(=O)C2)cc1,-6,0.89
O=C(O)Cc1cccc(NS(=O)(=O)c2ccc3c(c2)CCCO3)c1,-10,0.88
O=C(CNC(=O)Cc1ccccc1)NCc1ccccn1,-3,0.38
FC(F)(F)c1cccc(-c2cc(-c3csc(-c4ccccc4)n3)on2)c1,1,-0.12
Cc1ccccc1NC(=O)Nc1ccn2nccc2c1,-4,0.64
Cc1nc(-c2ccncc2)nc(N2CCCO[C@@H](C)C2)c1C,9,-1.28
